Measurements published in the supplement of paper PMC11417369.
Some of the results follow.

These sequences were tested on PfSIP2 AP2 domain 1 (GST-tagged) (assay: gcPBM binding intensity (ln(normalized median fluorescence intensity)); higher = stronger DNA binding).
Summary of the method: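 After 1 h on an Agilent 4 × 180k array of primer-extended double-stranded 36-bp intergenic genomic probes and negative controls, bound GST-tagged P. falciparum DNA-binding domains were detected with Alexa488 anti-GST antibody and scanned at 488 nm. The domains had been expressed in E. coli, and binding took place in 1× PBS with 1% milk, 0.2 mg/ml BSA, 0.5% salmon testes DNA and 0.03% Triton X-100. Binding intensity is the highest Masliner-normalised natural-log median intensity across replicate spots of either probe orientation.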

Sequence | gcPBM binding intensity (ln)
CATACATACAGACACACACACATATTTATATTTATA [CACACA_site6172] | 7.5
GTTAATTATTAAATTTGTACTCATATATATTATATA [XGTACX_site6862] | 7.34
TCCCTTAATTTTGTGTGTACATATAATATATTTTTA [XGTACX_site2789] | 7.09
GGAATAGTGATATATACACACAAATACATATTTATA [CACACA_site6183] | 6.98
AATTAATAAGAAAGGTGTACAGAAAAAAAAAAATAT [XGTACX_site2106] | 7.42
AATATATAGGAAAAAGTGCAATAAATGAACAAAATA | 7.56
TTTAATAAAATTCTAGTGCAAAAAGGAAAAAACAAA [GTGCAC_site9642] | 7.93
AATTTTGATATATATTGTACGCATTTTTAAATGCCA [XGTACX_site7694] | 6.99
AAAAGAAATGACAAATTGGATAGATAATAGGGGGTA [GTGCAC_negctrl_site262] | 7.04
TTCTTAATTTAAAATTGTACTTAAGTAATACTTATG [XGTACX_site3928] | 6.83
GAAGTTTTTTAAAGATGTACTTTTTAAAAATAATGT [XGTACX_site1975] | 7.28
TTATTTACTTATTGCACACATATAAAATATATTTAT [CACACA_site3101] | 7.74
AAAAAAAAAAAAAATACACACATATATAAATAAATA [CACACA_site6459] | 7.1
TATACATATGTATGCACACATACATACCCATATAAT [CACACA_site5842] | 7.11
CTATATATAAAATATTGTACTTATTTTTATTACATC [XGTACX_site3963] | 7.21
TTTTCTCAATTTTGGTGTACTTTTTTCTTAACACAT [XGTACX_site8918] | 7.29
TATTTAAAATATTAAATTTGTAAAGTTCGAGGGAAG [GTGCAC_negctrl_site337] | 7.19
GAAAAAAAAATATCTTGTACTTACATAACTATTGGT [XGTACX_site5326] | 7.04
AAAGGTTTATCTGATACACACATAAGTGATCAGGTT [CACACA_site6233] | 6.76
TAAATTAAAAAACATAAACTATTGGAAACGCATTGA [CACACA_negctrl_site935] | 6.74
ACACAATAAACATTATGTACATATAATGTTCTGTGT [XGTACX_site3381] | 6.95
AATGATAATCTATTATGTACACATATATTCTTATGT [XGTACX_site4148] | 6.93

Sequence | gcPBM binding intensity (ln)
TATATATATATATTATGTACATATATAAATTAACAT [XGTACX_site3368] | 9.08
AATATAGGAATATGCACACATATATACATACATACA [CACACA_site1521] | 7.55
TTTTTTAAAGTTTAAAGTACATATAAAAATATATAA [XGTACX_site5267] | 6.79
TATGAAAAAAAAAAAAAAAAAAAAAAAAAAAAAAAA [XGTACX_negctrl_site587] | 6.99
TATATATGGATATATACACACAACGGTTATAAATAT [CACACA_site6655] | 6.91
AAAAAAATAAAATATATATATATATATATATATATA [GTGCAC_negctrl_site706] | 9.72
AATTAATAAAAAAGGTGTACAGTAAATGCAATAATC [XGTACX_site7956] | 7.65
TCTTTTATATATAATAATTATATATAACATTCAAAC [GTGCAC_negctrl_site112] | 7.1
ATAAATTCATACATTTGTACACAAAAAAAAAAAAAA [XGTACX_site2435] | 7.13
CCTTATACGATATTATGTACGCATATGTGCATTTTT [XGTACX_site1570] | 7.21
ATATATATATATTTATGTACATATTATTTATTCTTT [XGTACX_site6567] | 9.33
ATTATTTGATTAAAGGTGCAAGGATAATAATAAAAC | 10.3
TAATGGTATAAAAAATGTACATGTTTTTTTACAATT [XGTACX_site4285] | 6.99
TATTATATAATATACTGTACAATATCCATTATTTAC [XGTACX_site7091] | 7.06
TATATTTACTTATATGCACACATAAATGTGAATTAT [CACACA_site9258] | 7.12
ACATATAATAAAATAGTGCATTGTTAGTTTTATATA | 9.85
AAAGGAAAAGTTGACTGTACATAAGTAAAAAATAAT [XGTACX_site788] | 7.01
AAAAAAAAAAAAAACACACAGAAATATATATATATT [CACACA_site832] | 7.16
TTTATACAAATATGTACACACTAAATATATATTATG [CACACA_site4413] | 7.13
ATTCATTCCATACTTTAACACACAAATATATTTAAT [CACACA_site7930] | 7.48
TTTTTGTAACCGATTCTGCACTGAGAAGCACATATA | 7.65
ATATTATACGCATATGTGCGCATACATTTTTTTGCA [GTGCAC_site9540] | 8.44
